# In PubChem BioAssay AID504832 (National Center for Advancing Translational Sciences (NCATS), 2011):
# Screen size: about 310,000 compounds; about 18,000 (5.8%) were called active. Inconclusive means that the source gave no clear call. Such entries were picked first, then a sample of the others. The call rests on the fitted dose curve; in most records, active means well fitted inhibition curve with a large enough effect; inconclusive means small, poorly fitted or top-dose-only effect, or another doubt; inactive means no such curve, though single readings can be large or run the other way. No potency is given beside an inconclusive call; the fits are too rough.
# Assay: Primary qHTS for delayed death inhibitors of the malarial parasite plastid, 48 hour incubation
# Conditions: P. falciparum luciferase growth in erythrocytes; series mostly up to 28.7 µM
# How it was run: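 Compounds are pin-transferred into medium, infected erythrocytes (2% hematocrit, 0.1% parasitemia final) are added, and plates sit one parasite generation at 37 C in 5% CO2. Detection reagent is then added and luminescence measured.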
# Potency means the concentration at half of the fitted maximal effect; tags describe the fitted curve by direction and shape.
row,Structure (SMILES),Potency
1,COC(=O)C1C(=O)C2=C(CC1C)NC(C)=C(C(=O)OC(C)C)C2c1ccc(OC)c(O)c1 (stereo unspecified),"inconclusive [inhibitor, partial curve, poor fit]"
2,CN(C)CCCN(C(=O)c1ccc(S(=O)(=O)N2CCCC2)cc1)c1nc2c(F)cc(F)cc2s1,"inconclusive [inhibitor, single point]"
3,Cc1ccc(NC(=O)Nc2nc3ccccc3s2)cc1NC(=O)Nc1nc2ccccc2s1,active: 2.08 µM
4,COc1ccccc1N1CCN(Cc2nc(-c3ccc(F)cc3)oc2C)CC1,"inconclusive [inhibitor, single point]"
5,COc1ccccc1-c1cc2nc(C)c(CCC(=O)NCc3ccc(F)cc3)c(C)n2n1,"inconclusive [inhibitor, single point]"
6,NC(=O)c1cc(C(=O)Cc2ccccc2)c[nH]1,inactive
7,Cc1cc(C)n(CC(O)CN(c2cccc([N+](=O)[O-])c2)S(=O)(=O)c2ccccc2)n1 (stereo unspecified),"inconclusive [inhibitor, partial curve, poor fit]"
8,O=C(N/N=C/c1ccc([N+](=O)[O-])o1)c1cn(-c2ccccc2)nc1-c1ccc(Cl)cc1,active: 4.65 µM
9,Cc1nc(COc2ccc(C(=O)NCc3ccccc3CN3CCCCC3)cc2)cs1,"inconclusive [inhibitor, single point]"
10,O=C(/C=C/c1ccc(Br)cc1)NC(=O)c1ccccc1O,inactive
11,CCOC(=O)C1=C(COC(=O)c2sccc2C)NC(=O)NC1C (stereo unspecified),"inconclusive [inhibitor, single point]"
12,CC1=C(C(N)=O)C(c2ccco2)C(C(N)=O)=C(C)N1,inactive
13,CCn1c(CCCOc2ccc(Cl)cc2Cl)nnc1SCC(=O)Nc1cccc(F)c1,inactive
14,COc1ccc(CCNC(=O)C2CCN(S(=O)(=O)N3CCCCCC3)CC2)cc1OC,"inconclusive [inhibitor, partial curve]"
15,Cc1ccc(NC(=O)CCC(=O)N2CCN(S(=O)(=O)c3ccc(C)cc3)CC2)cc1,"inconclusive [inhibitor, partial curve]"
16,CCC1Cc2c(nc(N)c3c(N)nc(N4CCOCC4)c(C#N)c23)O1 (stereo unspecified),inactive
17,CCOC(=O)N1CCC(NC(=O)c2cnn3c2NC(c2ccco2)CC3C(F)(F)F)CC1 (stereo unspecified),"inconclusive [inhibitor, single point]"
18,CN(Cc1cnccn1)C(=O)CC1C(=O)NCCN1Cc1cccc(Oc2ccccc2)c1 (stereo unspecified),inactive
19,CCOc1ccc(NC(=O)CN2CCN(CC(=O)Nc3ccc(F)c(F)c3)CC2)cc1,"inconclusive [inhibitor, partial curve]"
20,O=C(COC(=O)c1ccccn1)c1ccc([N+](=O)[O-])cc1,"inconclusive [inhibitor, partial curve, poor fit]"
21,CSc1nc(C)c(C(=O)Nc2ccccc2)c(-c2ccco2)c1C#N,"inconclusive [inhibitor, partial curve]"

row,Structure (SMILES),Potency
1,COC(=O)C1=C(c2ccc(F)cc2OCc2ccccc2)C[C@@H]2CC[C@H]1N2C(=O)NC(C)C,active: 9.28 µM
2,CC(=O)c1ccccc1OCC(O)CN1CCN(CCN2C(=O)c3cccc4cccc(c34)C2=O)CC1 (stereo unspecified),"inconclusive [inhibitor, single point]"
3,CCC(C)NCCOCCOc1ccc(C)cc1Br (stereo unspecified),"inconclusive [inhibitor, single point]"
4,COc1cc(-c2ccc(NC(=O)NC3CC3)c(OC)c2)ccc1NC(=O)NC1CC1,"inconclusive [inhibitor, partial curve, poor fit]"
5,CCOC(=O)C[N+](C)(C)CCOC1CC2CCC1(C)C2(C)C (stereo unspecified),active: 2.08 µM
6,CCOC(=O)N1CCN(C(=O)COc2cc(=O)n(C)c3ccccc23)CC1,inactive
7,CCCN1C(=O)/C(=C/c2c(NCCCOCC)nc3c(C)cccn3c2=O)SC1=S,"inconclusive [inhibitor, single point]"
8,CCOc1cc(CN2CCN(C(=O)c3cccc4ccccc34)CC2)ccc1OC,active: 8.28 µM
9,Cc1ccc2c(c1)c(=O)c1c3n2CCN(CC2CO2)C3CC1 (stereo unspecified),"inconclusive [inhibitor, single point]"
10,COC(=O)c1ccc(-c2sc3nc(N4CCOCC4)c4c(c3c2N)CC(C)(C)OC4)o1,"inconclusive [inhibitor, single point]"
11,Cc1cc(OCc2ccc(C(=O)NN=C3CCCC3)cc2)ccc1Cl,inactive
12,O=C1CCCC2=C1C1O[C@](CCCCN3C(=O)c4ccccc4C3=O)(Cc3ccccc31)O2,"inconclusive [inhibitor, full curve]"
13,COc1cc(OC)cc(C(=O)Nc2ccc(N3CCN(C(=O)c4cccs4)CC3)cc2)c1,"inconclusive [inhibitor, single point]"
14,CC1(C)Cc2c(cnn2-c2ccc(F)cc2)C(NC(=O)CCC(F)(F)F)C1 (stereo unspecified),"inconclusive [inhibitor, full curve, poor fit]"
15,CCn1ccc2cc(OC)ccc2c1=S,"inconclusive [inhibitor, single point]"
16,C[C@H](NC(=O)c1[nH]cnc1C(=O)N[C@H](C)c1ccccc1)c1ccccc1,"inconclusive [inhibitor, single point]"
17,O=C(CSc1nnc(Cc2cccs2)n1Cc1ccco1)Nc1ccc(Cl)cc1Cl,"inconclusive [inhibitor, single point]"
18,CCc1ccc(S(=O)(=O)N2CCCC(N3CCN(c4ccc(OC)cc4)CC3)C2)cc1 (stereo unspecified),"inconclusive [inhibitor, partial curve, poor fit]"
19,COc1cc(NS(=O)(=O)c2c(C)oc3c(F)c(F)c(F)c(F)c23)cc(OC)c1OC,"inconclusive [inhibitor, single point]"
20,N#CCC(=O)Nc1ccc(C(=O)OCC(=O)N(Cc2ccccc2)C2CCS(=O)(=O)C2)cc1 (stereo unspecified),inactive
